# Laboratory results published in article PMC12136788.
# The other results are listed elsewhere or left out.
# B1: chr1:60041781:60041782:+_ENSMUSG00000041040_ENSMUST00000036540|mus_hu|mus_mus_mus_hu_False|18_108 (ssRNA)
# RNA: GGGAGUUCUACAGUCCGACGAUCAAGAGGAGUGAAUUAAAGUAAAUGCAGUAGUGGCAAAUUUUCUUUUAUUUUCCUUCACAAAAGAAAAUCUUUAUAACCCAGUCCUAGUCUUGGCAGAGAAAGCAGCUAUAAAUUCUGACUCAACAGAGGAUUGAGCAUCA
# B2: chr1:53517203:53517204:+_ENSG00000116171_ENST00000408941|hu_hu|FALSE|FALSE (ssRNA)
# RNA: GGGAGUUCUACAGUCCGACGAUCAGAAAAAGUUAUUUUAAUUUUCUAUUAAACAUUCUUCUCAAAGCAUUAUUUUAUCCUAUAUCUCACUGAAUUUUAAGAAAUAACAUUAGUAUUAGAAAAACUAGGAAAAAAGAUAAAUGCCAACAGAGGAUUGAGCAUCA
# B3: chr16:33500690:33500691:+_ENSMUSG00000022811_ENSMUST00000165418|mus_mus|FALSE|FALSE (ssRNA)
# RNA: GGGAGUUCUACAGUCCGACGAUCAACAAGAAAUGUUUGUCUGCUUUAGUCUGUUUCCUACCAAAGUUUAGGUGGAAAAAAGGAAACACACACUUUUUAUUUGCAGAAUAUAGCAAAAACAACUGGAAAAUUAUUUCCCUGAAACAACAGAGGAUUGAGCAUCA
# B4: chr5:77712431:77712432:+_ENSG00000085365_ENST00000538629|hu_hu|FALSE|FALSE (ssRNA)
# RNA: GGGAGUUCUACAGUCCGACGAUCCCAAUUAUUUUUUCUACCAUGUUGACUGAGGUUUUGCAUUUCUCGUUCCCGACGAUCUAAUUCUGCGGCUUUUCUUUCUAGUUCUUCCUGGCGCUUAAGAAGUUCAGCUUGGGCCAAUGCCAACAGAGGAUUGAGCAUCA
# B5: chr8:87366250:87366251:-_ENSMUSG00000003814_ENSMUST00000003912|mus_hu|FALSE|FALSE (ssRNA)
# RNA: GGGAGUUCUACAGUCCGACGAUCGGAGAGCAGAUGAAAUCUCAGGCCUGUGGCUUCUCCACACCACUGCCCCCCAGGUUGGAGGGGAGCUAAGAGAUGAGAGAAGGGGACAGAGGCAAGAAAAGAUGUUGAUCAAGAAAGAUGCAACAGAGGAUUGAGCAUCA
# B6: chr12:42180722:42180723:-_ENSMUSG00000036295_ENSMUST00000043884|mus_hu|mus_mus_mus_hu_True|8_58 (ssRNA)
# RNA: GGGAGUUCUACAGUCCGACGAUCCUGUAGGAGAAGAAUCUGUGUGUUAGCUGGCAAUCUGGCUGGGAAAGUUAAAAGCCCUAAAUCAUUACAAUCCACUGUAGAUGCUUCCAUAUAAAUGGAUCUGGGGGUAAACCAAGGCCUCAACAGAGGAUUGAGCAUCA
# B7: 93743468_93745081_508_CDS_ENSMUSG00000054079_ENSMUST00000066888|mouse|control|control (ssRNA)
# RNA: GGGAGUUCUACAGUCCGACGAUCAUUGUUCGACAUGUCAACUAUUUCCUCAUCUUCAUCAUCUUCAUCCACCCAAACUGGCUGCUUCUUCUUCUGAGAAAAAAUGUCUUUUGCUUCAUUUUCCACUUCCGAUUCAUCUGAGCUCAACAGAGGAUUGAGCAUCA
# B8: chr2:232320318:232320319:-_ENSG00000115053_ENST00000322723|hu_hu|hu_hu_hu_mus_True|28_28 (ssRNA)
# RNA: GGGAGUUCUACAGUCCGACGAUCACUAUUAAAGUCUACAAAACCAAACCCUUUGGAAGAACCAGUUUCCCGAUCAGUGACUAUUCUUGCACGAACAGAGCCCUCAAAUGACUCCUUUAAGGUCUCUUCAGUGGUAUCCUCAGACAACAGAGGAUUGAGCAUCA
# B9: 28110298_28115287_231_CDS_ENSMUSG00000002221_ENSMUST00000002291|mouse|control|control (ssRNA)
# RNA: GGGAGUUCUACAGUCCGACGAUCAGUCACCCAGGAAGGCUUUACAACGGGCAAGUCAAAGACCUCACGGGCUUCUCCCACCUCUGGGUUGUCCCCAUCCUCUGAAAUGAUGUGUGAGGCCAGGGCAUUGUAGGAGACUUCCUUCAACAGAGGAUUGAGCAUCA
# B10: 153055496_153055616_3423_3pUTR_ENSMUSG00000051413_ENSMUST00000056924|mouse|control|control (ssRNA)
# RNA: GGGAGUUCUACAGUCCGACGAUCGGGGCAGGGAAGAACUGGUGGGAGGUUGAGGCAGUUCCUAGGUAGUCUGUCCUGAAACCCUAGUGGAGAAGCCAGCAAACGGCACCACUAACACAAGUGCCCAGGCUGCUGGCUACAUCUCAACAGAGGAUUGAGCAUCA
# B11: chr17:53040142:53040143:-_ENSG00000166260_ENST00000299335|hu_hu|FALSE|FALSE (ssRNA)
# RNA: GGGAGUUCUACAGUCCGACGAUCCUGACUUCAAUUAUAUCCUGGAACUGGCAACUUGUGCCCUUCCUUUGCUUCAAAAAAAGUGUAAGAAAGAGUGAUAAGAUCAACUUUAAUCAUUCUUGGAUCUUCAGCAAAUUCAGGAUCCAACAGAGGAUUGAGCAUCA
# B12: 25990515_25991650_895_CDS_ENSG00000143970_ENST00000336112|human|control|control (ssRNA)
# RNA: GGGAGUUCUACAGUCCGACGAUCUUUAACUGAGGAAGAAAAGCUGGAGUUUGAGUUUUGAGGGCUGCCUGUCUGUCCAUCAGAUUGCUUUCCUUCCCAUGUUGCAGGUUUGGCAGGUACAGAGUCACUGGCUGCUUUGACAGUCAACAGAGGAUUGAGCAUCA
# B13: chr5:128448638:128448639:+_ENSG00000066583_ENST00000173527|hu_mus|hu_hu_hu_mus_False|18_58 (ssRNA)
# RNA: GGGAGUUCUACAGUCCGACGAUCGGCACUCGCCUUAAUUAGGUUCUGAAUUUCCUUGAACUUCGGGUGGUCUUUGUCAGCUACCAGCUGUAGGAGGACAGCCUCACUAGUGGUCACUAUGAUCCCGGUGCGGGCAAGACGCUCCAACAGAGGAUUGAGCAUCA
# B14: chr15:98516890:98516891:+_ENSG00000140450_ENST00000268042|hu_mus|FALSE|FALSE (ssRNA)
# RNA: GGGAGUUCUACAGUCCGACGAUCAAUAAAAAUUUUAAAAAGCAAGUGAACUUACCAAAAAAAAAAACACAACCUUUGCCUACUGAGUUUCUUAUUGUGCAAAACAGAGACACAGAAAGUAAAGUUGUGCUCCAGGGGAAGGGACAACAGAGGAUUGAGCAUCA
# B15: chr15:27661301:27661302:-_ENSMUSG00000022263_ENSMUST00000090247|mus_hu|motif|central (ssRNA)
# RNA: GGGAGUUCUACAGUCCGACGAUCAACCCCAACACACACACAAAACCAUAAAGCUCACCAUACGAAGUAUGUGCUUUUUCGGUAUAUUUAUUACAGGUACAACAGAGGUCUUCAUAAAUAGUUGCAUAAAAUGUUAAAGCCACACAACAGAGGAUUGAGCAUCA
# B16: chr3:179287964:179287965:+_ENSG00000136518_ENST00000429709|hu_hu|hu_hu_hu_mus_True|1_88 (ssRNA)
# RNA: GGGAGUUCUACAGUCCGACGAUCCUUGAGUGGUGAGAUGGCCUCCAUAUUCUCCCUGGGCACGCGGAGGGCAUUGGUGUCUAUGUAGUAGGUGGGCCCGCCCUGCUUGCCUUUGUCACCAUCAAUCUCCAUCAUUGUGCUUCCCAACAGAGGAUUGAGCAUCA
# B17: 42053013_42054352_1604_CDS_ENSG00000196419_ENST00000405878|human|control|control (ssRNA)
# RNA: GGGAGUUCUACAGUCCGACGAUCCAGGUCCACUGCUUGUUCCGGCUCCAUCAAAUCCAAGGCCAAGGCCUCCAGGUUCCUGAAGUGCUGCUGCAGCACGGGGUUCUCAAAGCUGUCACUUCUGUAUGUGAAGCGAAGCUUCUCCAACAGAGGAUUGAGCAUCA
# B18: chr8:95500983:95500984:-_ENSG00000164944_ENST00000437199|hu_hu|hu_hu_hu_mus_True|78_98 (ssRNA)
# RNA: GGGAGUUCUACAGUCCGACGAUCAGAACACAUCUAUUCGUGUAAAGACCGUACAUGGACGACCUCUCCACUGCCUCCACUAACAAACUUUCCUCUCGAGCCUCCACUGCCGCUAUUUGUACUAGCCCAGGACGGUCCCAGGCCCAACAGAGGAUUGAGCAUCA
# B19: chr2:202488911:202488912:-_ENSG00000155755_ENST00000286196|hu_mus|hu_hu_hu_mus_False|1_8 (ssRNA)
# RNA: GGGAGUUCUACAGUCCGACGAUCAUUGAAACAUUUUUCAUAAUCUCCAGUAGCAUUUCAGCAUUAUGUAACAAAAGCUCAAUUGUAAAUACAUGUAUCUUAUAAAAAUACACUUAAAAACACGAGUAAAAAUGGGACAAAUACCAACAGAGGAUUGAGCAUCA
# B20: chr1:66480114:66480115:+_ENSMUSG00000015222_ENSMUST00000024639|mus_hu|mus_mus_mus_hu_True|1_108 (ssRNA)
# RNA: GGGAGUUCUACAGUCCGACGAUCUGGCCUGUGACGGAUGUUCUUCAGAGAGCCACAUUUGGAUGUCACAUGGCUUAGGUCUAUUUUCUUGGUAACAAUUUGUACCUGCCCCCCUUUAGGCUGGUAUUUGAUGUUGUCAGUUGACAACAGAGGAUUGAGCAUCA
# B21: chr14:66974463:66974464:+_ENSMUSG00000022044_ENSMUST00000074523|mus_hu|mus_mus_mus_hu_False|8_88 (ssRNA)
# RNA: GGGAGUUCUACAGUCCGACGAUCUUGUAGGACGACUUAUUCAGGGGAUCAGACAAGAAGCAGGAGCAGAACAAGGACACCAGCGGGAGCUCCUUCAUCUUCUCUUUGUAGGCAGCAAGGGUCAUGUUGGCUGGAAUUGGUGGCCAACAGAGGAUUGAGCAUCA
# B22: chr7:63200040:63200041:-_ENSMUSG00000030452_ENSMUST00000032635|mus_mus|FALSE|FALSE (ssRNA)
# RNA: GGGAGUUCUACAGUCCGACGAUCCUCAUUUCGUUAGUUACUUAAGUUCCUGUGAGUGACAUUGAUCACCGAACAGAGAAACUGCUUGUACAGGAGACAAGGUGACGCAAUCCUCAAACAUGUAAGUUUAAUAUGGUCUUUCUUCAACAGAGGAUUGAGCAUCA
# Target: T1, UNK ZnF1-3 (human, UniProt Q9C0B0 31-174)
# T1 sequence: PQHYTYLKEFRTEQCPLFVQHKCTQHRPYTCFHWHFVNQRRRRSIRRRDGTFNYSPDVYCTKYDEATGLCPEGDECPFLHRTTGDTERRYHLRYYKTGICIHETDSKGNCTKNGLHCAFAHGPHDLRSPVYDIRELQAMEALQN
# Test: nsRBNS (natural sequence RNA bind-n-seq); RBNS binding buffer (assumed for nsRBNS): 25 mM Tris pH 7.5, 150 mM KCl, 3 mM MgCl2, 0.01% Triton X-100, 500 ug/ml BSA, 20 U/ml SUPERase-In, 4 C; UNK is unkempt and MSI1 is Musashi-1; names of the RNAs are library labels; protein concentration not given here; high values mean tight binding
row,Binder,binding signal [enrichment R]
1,B1,1.1
2,B2,0.523
3,B3,0.445
4,B4,0.426
5,B5,1.1
6,B6,1.35
7,B7,0.461
8,B8,0.466
9,B9,1.02
10,B10,1.46
11,B11,0.693
12,B12,0.746
13,B13,0.681
14,B14,0.775
15,B15,1.53
16,B16,0.73
17,B17,0.908
18,B18,1.27
19,B19,0.88
20,B20,0.39
21,B21,1.98
22,B22,1.26
